# According to the supplement of paper PMC10600219:
# Counter-ions that a name gives are not always drawn. Whole data set: some 2,800 compounds, median “cell viability relative to vehicle” near 0.98, cut for the lowest 2% near 0.45. Some of the results follow.
# Test system: NCI-H2228 alectinib-DTP
# Test: cell viability relative to vehicle (fraction of vehicle); NCI-H2228 is an ALK-positive lung cancer line and DTP means drug-tolerant persister; higher = less growth inhibition
# Conditions: 100 nM; treatment time 6 days
# Method in brief: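 Drug-tolerant persister NCI-H2228 cells, produced by 13 days in 1000 nM of a targeted drug, and their parental counterparts were seeded into 384-well plates and, the following day, given the 3114-agent TargetMol anti-cancer compound library at 100 nM or DMSO vehicle. After 6 days, the CellTiter-Glo 3D Cell Viability Assay was used to read ATP. Each entry reports viability compared with vehicle-treated cells.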
row,SMILES,cell viability
1,CC1(C)CC(=O)c2c(C(F)(F)F)nn(-c3ccc(C(N)=O)c(N[C@H]4CC[C@H](OC(=O)CN)CC4)c3)c2C1,0.527
2,CC1(C)[C@@H](O)CC[C@]2(C)[C@H]3C(=O)C=C4[C@@H]5C[C@@](C)(C(=O)O)CC[C@]5(C)CC[C@@]4(C)[C@]3(C)CC[C@@H]12 [Enoxolone],1.2
3,O=C(CCCN1CCC(O)(c2ccc(Cl)cc2)CC1)c1ccc(F)cc1 [Haloperidol],1.13
4,COc1cc2c(cc1OC)[C@@H]1Cc3ccc(OC)c(OC)c3CN1CC2 [Rotundine],1.07
5,O=C(O)/C=C/C(=O)O [Fumaric acid],0.971
6,CC1(C)CC[C@]2(C(=O)O)CC[C@]3(C)[C@H](C(=O)C=C4[C@@]5(C)C=C(C#N)C(=O)C(C)(C)[C@@H]5CC[C@]43C)[C@@H]2C1 [Bardoxolone],0.899
7,Cc1ccc(C)c(OCCCC(C)(C)C(=O)O)c1 [Gemfibrozil],0.955
8,Cc1ccc(Sc2ccccc2N2CCNCC2)c(C)c1 [Vortioxetine],0.914
9,COc1ccc(CNc2nc(N(CCO)CCO)nc3c2ncn3C(C)C)cc1,1.07
10,NCC(=O)CCC(=O)O [5-Aminolevulinic acid hydrochloride],0.979
11,C[C@H](NC(=O)CCc1nc2ccccc2c(=O)[nH]1)c1ccccc1,0.922
12,Cc1nn(C)cc1-c1nc2c(N3CCN(Cc4ccc(Cl)cc4)CC3)c(Cl)cnc2[nH]1,0.998
13,CN1CCC(CNc2ccc3ncc(-c4cccc(OC(F)(F)F)c4)n3n2)CC1 [SGI-1776 free base],0.86
14,CC(C[N+](C)(C)C)OC(N)=O (stereo unspecified) [Bethanechol chloride],0.998
15,NCCC(O)(P(=O)(O)O)P(=O)(O)O [Pamidronate disodium salt],0.98
16,Cc1ccc2nc(NCCN)c3ncc(C)n3c2c1,0.901
17,Cc1cn([C@H]2C[C@H](N=[N+]=[N-])[C@@H](CO)O2)c(=O)[nH]c1=O [Zidovudine],0.947
18,CC(=O)c1cc([N+](=O)[O-])c(Sc2ccc(F)cc2F)s1,0.98
19,Cc1nn2c([nH]c(=O)c3cccnc32)c1C#N,1.02
20,NS(=O)(=O)Cc1noc2ccccc12 [Zonisamide],0.928
21,CN(C)CCN(Cc1ccc(Cl)cc1)c1ccccn1 [Chloropyramine hydrochloride],1.09
22,C=CCc1ccc(O)c(-c2cc(CC=C)ccc2O)c1 [Magnolol],1.05
23,COc1ccc2c(c1)C(=O)N(CCc1ccc(S(=O)(=O)NC(=O)NC3CCCCC3)cc1)C(=O)C2(C)C [Gliquidone],1.1
24,CC(=O)OC(C)C(C)C(=O)OCC12C3CC(C)(C)[C@H](O[C@@H]1C[C@]1(C)C3=CCC3C4(C)CCC(O[C@@H]5O[C@H](C(=O)O)[C@@H](O[C@H]6O[C@H](CO)[C@@H](O)[C@H](O)[C@H]6O)[C@H](O)[C@H]5O[C@@H]5OC[C@@H](O)[C@H](O)[C@H]5O)[C@](C)(CO)C4CCC31C)C2O (stereo partly specified) [Sodium Aescinate],0.996
25,Cc1cnc(-c2cnc(NCCNc3ccc(C#N)cn3)nc2-c2ccc(Cl)cc2Cl)[nH]1,1.07
26,CCNC(=O)c1noc(-c2cc(C(C)C)c(O)cc2O)c1-c1ccc(CN2CCOCC2)cc1 [Luminespib],0.48

row,SMILES,cell viability
1,CNCc1ccc(-c2[nH]c3cc(F)cc4c3c2CCNC4=O)cc1 [Rucaparib Phosphate],1.04
2,Nc1nc(=O)c2c([nH]1)NC[C@H](CNc1ccc(C(=O)N[C@@H](CCC(=O)O)C(=O)O)cc1)N2C=O [Calcium Levofolinate],1.11
3,COc1ccc(CCc2nc3cc(-c4c(C)noc4C)ccc3n2C[C@H](C)N2CCOCC2)cc1Cl,0.965
4,Oc1nc(-c2ccc(C(F)(F)F)cc2)nc2c1CSCC2,0.982
5,COc1ccc(-c2coc3cc(O[C@@H]4O[C@H](CO)[C@@H](O)[C@H](O)[C@H]4O)ccc3c2=O)cc1O [Calycosin-7-O-beta-D-glucoside],1.03
6,CN[C@H](CNC(=O)N1CCC[C@@H]([C@@H](OCCNC(=O)OC)c2cccc(Cl)c2)C1)C[C@H]1CCCOC1,0.931
7,CC(C)Cn1cnc2c(N)nc3ccccc3c21 [Imiquimod],1.02
8,CCNC(=O)[C@@H]1CCCN1C(=O)[C@H](CCCNC(=N)N)NC(=O)[C@H](CC(C)C)NC(=O)[C@@H](CC(C)C)NC(=O)[C@H](Cc1ccc(O)cc1)NC(=O)[C@H](CO)NC(=O)[C@H](Cc1c[nH]c2ccccc12)NC(=O)[C@H](Cc1c[nH]cn1)NC(=O)[C@@H]1CCC(=O)N1 [Leuprolide Acetate],0.954
9,CCCCN1CCC(CNC(=O)c2c3n(c4ccccc24)CCCO3)CC1 [Piboserod],1.16
10,CCNc1nc(Nc2cc(F)c(C(=O)N3CCOCC3)cc2OC)ncc1C(F)(F)F,0.962
11,CC1(C)O[C@@H]2[C@@H](CO[C@@]3(COS(N)(=O)=O)OC(C)(C)O[C@@H]23)O1 [Topiramate],1.06
12,C=C(C)[C@@H]1CC[C@]2(C)[C@H](CC=C3[C@@H]4[C@@H](C)[C@H](C)CC[C@]4(C)CC[C@]32C)[C@@]1(C)CCC(=O)O [Roburic acid],0.979
13,O=C1Nc2ccc(I)cc2/C1=C/c1cc(Br)c(O)c(Br)c1,1.09
14,N#Cc1ccc(COc2ccc(-c3cccc4nc(NC(=O)C5CC5)nn34)cc2)cn1 [GLPG0634 analogue],0.918
15,CCCCCCOc1cc(C)c(O)c(C)c1C,1.14
16,Nc1cccc(-c2nc(N3CCOCC3)c3oc4ncccc4c3n2)c1 [PIK-inhibitors],1
17,Cn1nnc(-c2ccc(-c3ccc(N4C[C@H](CO)OC4=O)cc3F)cn2)n1 [Torezolid],0.898
18,NS(=O)(=O)c1ccc(NC(=O)Nc2ccc(F)cc2)cc1,0.976
19,S=c1[nH]cnc2nc[nH]c12 [Mercaptopurine],1
20,S=c1[nH]cnc2nc[nH]c12 [6-Mercaptopurine monohydrate],0.594
21,COc1cc2c(cc1OC)[C@@H]1C(=O)c3ccc4c(c3O[C@@H]1CO2)C=CC(C)(C)O4 [Deguelin],1.08
22,CCCCCCCCNC(C)C(O)c1ccc(SC(C)C)cc1 (stereo unspecified) [Suloctidil],1
23,C=C1CCC[C@]2(C)C[C@@H]3OC(=O)C(C)=C3C[C@@H]12 [Atractylenolide II],0.899
24,O=C(O)c1cc(NCc2cc(O)ccc2O)ccc1O [lavendustin C],0.95
25,C=C(C)[C@@H]1CC[C@]2(C)CC[C@]3(C)[C@H](CC[C@@H]4[C@@]5(C)CC[C@H](O)C(C)(C)[C@@H]5CC[C@]43C)[C@@H]12 [Lupeol],0.982
26,O=C(NCCCNc1nc(Nc2cccc(NC(=O)N3CCCC3)c2)ncc1I)c1cccs1,0.96

row,SMILES,cell viability
1,Cc1cccc(-c2[nH]ncc2-c2ccc3ncccc3n2)n1,1.18
2,Cc1ccccc1C(=O)Nc1ccc(C(=O)N2CCCC(N(C)C)c3ccccc32)cc1 (stereo unspecified) [Mozavaptan],1.1
3,CCNC(=O)c1cc2c(-c3cc(OCCN4CCCC4)c(Cl)cc3Cl)nc(N)nc2s1,1.06
4,O=C(NNc1ccccc1)c1ccncc1 [PluriSln 1],0.933
5,CC(C)n1cnc2c(NCCc3ccc(O)cc3)nc(-c3csc4ccccc34)nc21 [StemRegenin 1],1.01
6,CC(=O)O[C@@H]1CC[C@@]2(C)[C@@H](CC[C@]3(C)[C@@H]2C(=O)C=C2[C@@H]4[C@@H](C)[C@H](C)CC[C@]4(C)CC[C@]23C)[C@@]1(C)C(=O)O,1.06
7,O=C1OC(=O)[C@H]2[C@@H]1[C@@H]1CC[C@H]2O1 [Norcantharidin],0.988
8,c1cc(CN2CCCNCCNCCCNCC2)ccc1CN1CCCNCCNCCCNCC1 [Plerixafor],0.843
9,O=c1[nH]c(=O)n([C@H]2C[C@H](O)[C@@H](CO)O2)cc1C(F)(F)F [Trifluridine],0.929
10,COC(=O)c1ccc(O)c(O)c1 [Methyl protocatechuate],0.879
11,Cc1cc(C#N)cc(C)c1Oc1nc(Nc2ccc(C#N)cc2)nc(N)c1Br [Etravirine],0.997
12,Cc1nnc(SCC2=C(C(=O)O)N3C(=O)[C@@H](NC(=O)Cn4cnnn4)[C@H]3SC2)s1 [Cefazolin sodium salt],0.908
13,CCCC(=O)O[C@]1(C(=O)CO)CC[C@H]2[C@@H]3CCC4=CC(=O)CC[C@]4(C)[C@H]3[C@@H](O)C[C@@]21C [Hydrocortisone butyrate],0.786
14,COc1ccc2c3c1O[C@H]1C[C@@H](O)C=C[C@@]31CCN(C)C2 [Galanthamine HBr],0.925
15,CO[C@H]1C[C@@H]2CC[C@@H](C)[C@@](O)(O2)C(=O)C(=O)N2CCCC[C@H]2C(=O)O[C@H]([C@H](C)C[C@@H]2CC[C@H](n3cnnn3)[C@H](OC)C2)CC(=O)[C@H](C)/C=C(\C)[C@@H](O)[C@@H](OC)C(=O)[C@H](C)C[C@H](C)/C=C/C=C/C=C/1C [Zotarolimus],0.754
16,CCCC(=O)Nc1cccc(NC(=O)c2ccccc2Br)c1,1.12
17,C#CC1(O)CC[C@H]2[C@@H]3CCC4=CC(=O)CC[C@@H]4[C@H]3CC[C@@]21CC (stereo partly specified) [Norgestrel],1.2
18,O=C(c1ccc(Cl)cc1Cl)n1nnc2ccccc21,1.03
19,N=C(NOCC(O)CN1CCCCC1)c1cccnc1 (stereo unspecified),1.02
20,COc1cc(-c2cc(-c3cccc(O)c3)cnc2N)cc(OC)c1OC,1.01
21,Nc1[nH]c(=O)nc2c1ncn2[C@@H]1O[C@H](CO)[C@@H](O)[C@H]1O,1.21
22,O=C(O)c1ccc(O)c2ncccc12,0.999
23,COc1cc2ncnc(Nc3ccc(O)c(Br)c3)c2cc1OC,1.02
24,CN(C)Cc1ccc(-c2cnn3c(-c4cccc(NC(=O)c5cccc(C(F)(F)F)c5)c4)ccnc23)cc1,0.841
